Out of some 110,000 compounds screened, about 230 (0.21%) showed an effect of 50% or more. The list shows a part of the results.
biological target: DPAP1 (Plasmodium falciparum, UniProt Q8IIJ9); assay: primary screen, percent inhibition; read by cleavage of a fluorogenic dipeptide substrate; higher = more effect of the substance; parameters: species or system P. falciparum D10 trophozoite lysates; single well
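Also: 30 min substrate incubation versus DMSO and 10 µM JCP410 controls.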

Chain of DPAP1 (Q8IIJ9 whole entry, looked up): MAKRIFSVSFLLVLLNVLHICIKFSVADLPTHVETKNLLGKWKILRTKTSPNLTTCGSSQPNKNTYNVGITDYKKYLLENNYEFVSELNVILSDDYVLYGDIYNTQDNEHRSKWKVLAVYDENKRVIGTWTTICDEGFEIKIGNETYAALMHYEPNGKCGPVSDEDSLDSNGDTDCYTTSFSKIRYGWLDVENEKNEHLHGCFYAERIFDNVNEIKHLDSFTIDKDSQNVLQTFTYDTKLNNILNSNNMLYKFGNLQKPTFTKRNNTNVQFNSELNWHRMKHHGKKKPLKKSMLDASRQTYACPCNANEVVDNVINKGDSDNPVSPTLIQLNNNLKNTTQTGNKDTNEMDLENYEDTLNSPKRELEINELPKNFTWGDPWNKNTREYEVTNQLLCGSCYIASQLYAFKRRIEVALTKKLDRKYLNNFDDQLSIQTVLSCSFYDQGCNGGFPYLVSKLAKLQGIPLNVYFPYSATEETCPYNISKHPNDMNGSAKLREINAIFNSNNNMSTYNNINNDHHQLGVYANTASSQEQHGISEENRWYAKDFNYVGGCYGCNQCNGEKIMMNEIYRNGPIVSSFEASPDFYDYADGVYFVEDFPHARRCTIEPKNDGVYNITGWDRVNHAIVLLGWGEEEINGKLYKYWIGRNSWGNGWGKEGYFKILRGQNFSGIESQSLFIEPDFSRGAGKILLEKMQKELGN

Structure (SMILES)	% Inhibition @ 10 uM [%]
CC(C)(C)NC(=O)CN(c1ccccc1Cl)S(=O)(=O)c1ccccc1	1.1
COC(=O)c1ccc(C2Oc3ccc(Br)cc3C3CC(c4ccco4)=NN32)cc1 (stereo not drawn)	-1.11
CCC1CCCCN1CCCNC(=O)c1csc2c1CCCCC2 (stereo not drawn)	3.54
CCOc1cc(C(=O)Nc2nc[nH]n2)cc(OCC)c1OCC	-10.2
CC(=O)c1ccc2c(c1)c1ccccc1n2C(C)C	0.132
CCc1ccc(CNC(=O)Cn2ncc3c(=O)oc4ccccc4c32)cc1	-2.83
CCCc1noc(-c2ccc(-c3ccc(OC)cc3)cc2)n1	6.07
Cc1ccc(CNC(=O)CCc2nc(O)c3c4c(sc3n2)CCCC4)cc1	4.69
COC(=O)c1ccc(CSc2nc(O)c3cnn(-c4ccc(Cl)cc4)c3n2)o1	-9.18
CCOc1cc(N2C(=O)CC3CS(=O)(=O)CC32)c(OCC)cc1NC(=O)c1ccccc1 (stereo not drawn)	0.755
COc1ccc(Cn2nnc(C(=O)NCc3ccc(C)cc3)c2N)cc1Br	-0.465
COc1ccc(CNC(=O)CCc2c(C)nc3c4c(C)cc(C)nc4nn3c2C)cc1	-0.72
O=C(NCc1ccccc1)c1cc(-c2ccccn2)nc2ccc(S(=O)(=O)N3CCOCC3)cc12	3.66
O=[N+]([O-])c1cc(-c2n[nH]c(O)c2C2=NCCCCC2)c(Cl)cc1Cl	-0.414
COc1ccc(Cn2c(SCc3ccc(C(=O)NCc4cccnc4)cc3)nc3cccnc32)cc1	3.46
Cc1ccc(C2CC(C(F)(F)F)n3ncc(C(=O)Nc4ccc(C(C)O)cc4)c3N2)cc1 (stereo not drawn)	2.65
COC(=O)c1cc(=O)n(CCc2ccccc2)/c(=N/CCc2ccccc2)s1	-5.25
CC1=CC(C)(C)N(C(=O)CN2C(=O)CCC2=O)c2cc(C)ccc21	0.317
O=C(Nc1cccc(Br)c1)c1cccc(Cn2cc(Cl)cn2)c1	-6.62
CCc1nnc2sc(NC(=O)Cc3ccccc3)nn12	-2.79
CNS(=O)(=O)c1cn(CC(=O)N2CCC(C)CC2)cc1S(=O)(=O)NC	-8.28

Structure (SMILES)	% Inhibition @ 10 uM [%]
CCOC(=O)c1nc(-c2cccs2)no1	-11.4
O=C(NCc1ccco1)/C(=C/c1cccs1)NC(=O)c1cccs1	5.89
CCC(C(=O)NC1CCCC1)n1c(SCc2cccc(OC)c2)nc2ccncc21 (stereo not drawn)	5.54
CCN(CC)c1ccc(NC(=O)Nc2ccc(C)cc2)cc1	-6.59
COCCNC(=O)c1[nH]nc2c1CCCC2	-5.37
Cc1c(Cc2ccccc2)sc(NC(=O)C2CCCCC2)c1C(N)=O	1.62
CCc1nccn1C(=O)c1cnn2c(C(F)F)cc(-c3ccccc3)nc12	75.7
CCOc1ccccc1CNCc1c(C(=O)O)n(Cc2ccc(OC)cc2)c2ccccc12	-4.37
COc1ccc(C)cc1NC(=O)CC1COc2ccccc2O1 (stereo not drawn)	0.913
COC(=O)c1cccc(CNCCc2c(C)[nH]c3ccc(OC)cc23)c1	2.7
O=C(Nc1ccc(F)cc1)c1ccc(Cn2cc(Br)cn2)cc1	1.96
Nc1nc(-c2ccccc2)cc(C(F)F)n1	4.7
Cn1c2c(c3cc(C4CCCCC4)ccc31)CCc1c[nH]nc1-2	4.57
Cc1oc(-c2ccc(Cl)cc2)nc1CSCC(=O)NCCCN1CCOCC1	2.16
COc1ccc(N2C3=C(C(=O)CC(C)(C)C3)C(c3cnn(C)c3)C3=C2CC(C)(C)CC3=O)cc1	1.69
O=C(NC1CC1)c1cc2nc(-c3cccs3)cc(C(F)(F)Cl)n2n1	-3.69
Fc1ccc(N2CCN(C3CCCCCC3)CC2)cc1	-4.75
CCCn1c(CNC(=O)c2ccc(Cl)cc2)nc2ccccc21	1.23
COc1ccc(S(=O)(=O)NCc2ccc3c(c2)OCO3)cc1	-3.5
CCOC(=O)C1CCCCN1C1CCN(C)CC1 (stereo not drawn)	-1.21
CN1C(=O)c2ccccc2C(C(=O)NCCC2=CCCCC2)C1c1cccs1 (stereo not drawn)	-0.228

Structure (SMILES)	% Inhibition @ 10 uM [%]
CCOCCCNC(=O)N1CCN(c2nnc(C)c3c(C)n(-c4ccc(Cl)cc4)nc23)CC1	2.48
COc1ccc(-c2nc(CS(=O)CC(=O)NCC3CCCO3)c(C)o2)cc1 (stereo not drawn)	-1.05
C=CCNC(=O)Cc1coc2ccc3ccccc3c12	-1.11
CCN(CC)c1ccc(N2Cc3ccccc3C2=N)cc1	1.96
COc1ccccc1/C=C/CNc1cccc(SC)c1	6.54
CCC1(CC)Cc2ccccc2C2=C(C(=O)N3CCOCC3)C(=O)C(=O)N21	1.93
O=C(Nc1noc2ccccc12)c1ccc(Br)o1	-2.85
O=C(C1CCCN(S(=O)(=O)N2CCOCC2)C1)N1CCN(C2CCCCC2)CC1 (stereo not drawn)	3.61
O=c1/c(=C/c2ccccc2)sc2nnc(-c3ccccc3)n12	-5.65
COc1ccccc1N1C(=O)CC(N2CCN(c3ccccn3)CC2)C1=O (stereo not drawn)	-2.77
CC(C)C[C@H](NC(=O)c1ccc(-c2cc(C(=O)O)ccc2Cl)s1)C(=O)NCC#N	-6.98
COc1ccc(OC)c2c(C)cc(N3CCN(C(=O)CCC4CCCCC4)CC3)nc12	0.895
O=C(NC1CCN(Cc2ccccc2)CC1)c1ccc2c(Cl)c3c(nc2c1)CCC3	4.28
Cc1nc2ccc(S(=O)(=O)N(C)CC(=O)NC3CCCC(C)C3C)cc2s1 (stereo not drawn)	4.33
CC(C)Sc1nc2c(c(=O)[nH]c(=O)n2C)n1Cc1ccccc1	-2.24
C=CCOc1ccc(Br)cc1/C=C(/C#N)c1nc2cc(C)ccc2[nH]1	4.38
CC1=Nc2nnnn2C(c2ccc(Br)cc2)/C1=C(\O)OC1CC(C)CCC1C(C)C (stereo not drawn)	-1.01
NC(=O)c1c(NC(=O)C2CC(=O)N(c3ccccc3)C2)sc2c1CCCC2 (stereo not drawn)	3.8
Cc1ccc(C2C(C#N)=C(N)SC(N)=C2C#N)o1	47.9
CCOc1ccc(C2C3=C(O)CCCC3=NC3=C2C(=O)CCC3)cc1OCC (stereo not drawn)	-1.6
COc1ccc2[nH]cc(CCNC(=O)c3cccnc3)c2c1	-1.6
